Assay results as given in PubChem BioAssay (NCI).
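Values below derive from 48-hour exposures of cells grown in 96-well plates, with endpoints linearly interpolated between the two concentrations bracketing the appropriate inhibition level. Abbreviation: GI50, concentration required for 50% inhibition of growth.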 The source holds more than one record for some entries. They are shown here; other results are not. An entry can have further records. A record mostly stands for its own series of concentrations, not given here; some values may only mark the edge of a range.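 Definition used: TGI = concentration required for complete inhibition of growth.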

System: MDA-MB-468 breast
Assay: NCI tumour cell line growth inhibition, 48 h

SMILES | TGI | GI50
CCNc1nc(N2CC(=O)Nc3cc(OC)ccc32)c2ccccc2n1 | 3.63 nM and > 100 µM | 
COC(=O)[C@@H](C)C[C@H](Cc1ccccc1)NC(=O)c1csc([C@@H](C[C@H](C(C)C)N(C)C(=O)[C@@H](NC(=O)[C@H]2CCCCN2C)C(C)C)OC(C)=O)n1 |  | 0.17 nM and 2.5 nM
